Target: S蛋白, SARS-CoV-2原型毒株 (SARS-CoV-2 (prototype))
Test: cell-based or functional assay

B1: 双特异性抗体蛋白DIA-19 (bispecific antibody)
chain: QITLKESGPTLVKPTQTLTLTCTFSGFSLSTSGVGVAWIRQPPGKALEWLALIYWDNDKRSSPSLNNRLTITKDTSKNQVVLTMTNMDPEDTATYYCAHFFSHYDSSNYYYGSWFDPWGQGTLVTVSSGGGGSGGGGS[letters of about 100 residues omitted]FTFGPGTKVDIKGGGGSGGGGSGGGGSGGGGSGGGGSEVQLVESGGGVVQPGGSLRLSCAVSGFTFDDYAMHWVRQAPGKGLDWVSLISGDGSYTYYADSVKGRFTISRDSSKNSLYLQMNSLRTEDTALYYCAKAQTPTLWWLQDAFDIWGQGTMVTVSSGGGGSGGGGSEIVLTQSPGTLSLSPGERATLSCRASQSFDSRYLGWYQQKSGQAPRLLIYGASSRATGIPDRFSGSGSGTDFTLTISRLEPEDFAVYYCQQFGDSPFTFGQGTKLEIKGGGGS[letters of human IgG1 Fc with changes omitted]
假病毒中和效果 IC50: 0.849 ng/mL
